{"source": "the supplement of paper PMC8728848", "binders": {"B1": {"name": "HA-11100 (Pseudomonas aeruginosa), Q02G51_PSEAB (protein)", "chain": "QFNPNEIKISQQGKTTLIDQSTQRAIINWKGFDVSADEAVRFNQPGVTSSTLNRVTAGQESVIAGRISAPGQVIIYNSNGVVFSGSAKVDVGSLITTTANISDEHFRQGKLIFDQPGNPDARIVNDGSISVAEKGLAAFVAPSVANNGVINARLGTVAMAAGNAATIDLYG"}}, "experiment_in_all_cases": "glycan array binding signal (z-score within array); higher = stronger binding", "settings_in_all_cases": "glycan notation: IUPAC condensed, linker removed", "key": {"Fuc(a1-2)Gal": {"target": "Fuc(a1-2)Gal", "outline": "(§1)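 Arrays were curated from the Consortium for Functional Glycomics database, 3228 in total, and kept only where the protein sequence was available. Binding is expressed as a within-array Z-score. This score was averaged across arrays of the same protein sequence at different concentrations or buffers and across linkers, and negative values can be read as non-binding.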"}, "Fuc(a1-2)Gal(b1-3)GalNAc": {"target": "Fuc(a1-2)Gal(b1-3)GalNAc", "outline": "as §1"}, "[1]": {"target": "Fuc(a1-2)Gal(b1-3)GalNAc(a1-3)[Fuc(a1-2)]Gal(b1-4)Glc", "outline": "as §1"}, "[2]": {"target": "Fuc(a1-2)Gal(b1-3)GalNAc(a1-3)[Fuc(a1-2)]Gal(b1-4)GlcNAc", "outline": "as §1"}, "[3]": {"target": "Fuc(a1-2)Gal(b1-3)GalNAc(b1-3)Gal", "outline": "as §1"}, "[4]": {"target": "Fuc(a1-2)Gal(b1-3)GalNAc(b1-3)Gal(a1-4)Gal(b1-4)Glc", "outline": "as §1"}, "[5]": {"target": "Fuc(a1-2)Gal(b1-3)GalNAc(b1-4)[Neu5Ac(a2-3)]Gal(b1-4)Glc", "outline": "as §1"}, "Fuc(a1-2)Gal(b1-3)GlcNAc": {"target": "Fuc(a1-2)Gal(b1-3)GlcNAc", "outline": "as §1"}, "[6]": {"target": "Fuc(a1-2)Gal(b1-3)GlcNAc(b1-2)Man(a1-3)[Fuc(a1-2)Gal(b1-3)GlcNAc(b1-2)Man(a1-6)]Man(b1-4)GlcNAc(b1-4)GlcNAc", "outline": "as §1"}, "[7]": {"target": "Fuc(a1-2)Gal(b1-3)GlcNAc(b1-2)Man(a1-3)[Fuc(a1-2)Gal(b1-3)GlcNAc(b1-2)Man(a1-6)]Man(b1-4)GlcNAc(b1-4)[Fuc(a1-6)]GlcNAc", "outline": "as §1"}, "[8]": {"target": "Fuc(a1-2)Gal(b1-3)GlcNAc(b1-3)Gal(b1-4)Glc", "outline": "as §1"}, "[9]": {"target": "Fuc(a1-2)Gal(b1-3)GlcNAc(b1-3)GalNAc", "outline": "as §1"}, "[10]": {"target": "Fuc(a1-2)Gal(b1-3)GlcNAc(b1-3)[Fuc(a1-2)Gal(b1-3)GlcNAc(b1-6)]GalNAc", "outline": "as §1"}, "[11]": {"target": "Fuc(a1-2)Gal(b1-3)GlcNAc(b1-3)[Gal(b1-4)GlcNAc(b1-6)]Gal(b1-4)Glc", "outline": "as §1"}, "[12]": {"target": "Fuc(a1-2)Gal(b1-3)GlcNAc(b1-3)[Neu5Ac(a2-6)Gal(b1-4)GlcNAc(b1-6)]Gal(b1-4)Glc", "outline": "as §1"}, "[13]": {"target": "Fuc(a1-2)Gal(b1-3)GlcNAc6S", "outline": "as §1"}, "[14]": {"target": "Fuc(a1-2)Gal(b1-3)[Fuc(a1-4)]GlcNAc", "outline": "as §1"}, "[15]": {"target": "Fuc(a1-2)Gal(b1-3)[Fuc(a1-4)]GlcNAc(b1-2)Man(a1-3)[Fuc(a1-2)Gal(b1-3)[Fuc(a1-4)]GlcNAc(b1-2)Man(a1-3)]Man(b1-4)GlcNAc(b1-4)GlcNAc", "outline": "as §1"}, "[16]": {"target": "Fuc(a1-2)Gal(b1-3)[Fuc(a1-4)]GlcNAc(b1-2)Man(a1-3)[Fuc(a1-2)Gal(b1-3)[Fuc(a1-4)]GlcNAc(b1-2)Man(a1-6)]Man(b1-4)GlcNAc(b1-4)[Fuc(a1-6)]GlcNAc(b1-4)[Fuc(a1-6)]GlcNAc", "outline": "as §1"}, "[17]": {"target": "Fuc(a1-2)Gal(b1-3)[Fuc(a1-4)]GlcNAc(b1-3)[Fuc(a1-3)[Gal(b1-4)]GlcNAc(b1-6)]Gal(b1-4)Glc", "outline": "as §1"}, "[18]": {"target": "Fuc(a1-2)Gal(b1-3)[Fuc(a1-4)]GlcNAc(b1-3)[Gal(b1-4)GlcNAc(b1-6)]Gal(b1-4)Glc", "outline": "as §1"}, "[19]": {"target": "Fuc(a1-2)Gal(b1-4)Fuc(a1-3)]GlcNAc(b1-2)Man(a1-3)[Fuc(a1-2)Gal(b1-4)[Fuc(a1-3)]GlcNAc(b1-2)Man(a1-6)]Man(b1-4)GlcNAc(b1-4)GlcNAc", "outline": "as §1"}, "Fuc(a1-2)Gal(b1-4)Glc": {"target": "Fuc(a1-2)Gal(b1-4)Glc", "outline": "as §1"}, "Fuc(a1-2)Gal(b1-4)Glc6S": {"target": "Fuc(a1-2)Gal(b1-4)Glc6S", "outline": "as §1"}, "Fuc(a1-2)Gal(b1-4)GlcNAc": {"target": "Fuc(a1-2)Gal(b1-4)GlcNAc", "outline": "as §1"}, "[20]": {"target": "Fuc(a1-2)Gal(b1-4)GlcNAc(b1-2)Man", "outline": "as §1"}, "[21]": {"target": "Fuc(a1-2)Gal(b1-4)GlcNAc(b1-2)Man(a1-3)[Fuc(a1-2)Gal(b1-4)GlcNAc(b1-2)Man(a1-6)]Man(b1-4)GlcNAc(b1-4)GlcNAc", "outline": "as §1"}, "[22]": {"target": "Fuc(a1-2)Gal(b1-4)GlcNAc(b1-2)Man(a1-3)[Fuc(a1-2)Gal(b1-4)GlcNAc(b1-2)Man(a1-6)]Man(b1-4)GlcNAc(b1-4)[Fuc(a1-6)]GlcNAc", "outline": "as §1"}, "[23]": {"target": "Fuc(a1-2)Gal(b1-4)GlcNAc(b1-2)[Fuc(a1-2)Gal(b1-4)GlcNAc(b1-4)]Man(a1-3)[Fuc(a1-2)Gal(b1-4)GlcNAc(b1-2)Man(a1-6)]Man(b1-4)GlcNAc(b1-4)GlcNAc", "outline": "as §1"}, "[24]": {"target": "Fuc(a1-2)Gal(b1-4)GlcNAc(b1-3)Gal(b1-4)GlcNAc", "outline": "as §1"}, "[25]": {"target": "Fuc(a1-2)Gal(b1-4)GlcNAc(b1-3)Gal(b1-4)GlcNAc(b1-2)Man(a1-3)[Fuc(a1-2)Gal(b1-4)GlcNAc(b1-3)Gal(b1-4)GlcNAc(b1-2)Man(a1-6)]Man(b1-4)GlcNAc(b1-4)GlcNAc", "outline": "as §1"}, "[26]": {"target": "Fuc(a1-2)Gal(b1-4)GlcNAc(b1-3)Gal(b1-4)GlcNAc(b1-3)Gal(b1-4)GlcNAc", "outline": "as §1"}, "[27]": {"target": "Fuc(a1-2)Gal(b1-4)GlcNAc(b1-3)GalNAc", "outline": "as §1"}, "[28]": {"target": "Fuc(a1-2)Gal(b1-4)GlcNAc(b1-3)[Fuc(a1-2)Gal(b1-4)GlcNAc(b1-6)]GalNAc", "outline": "as §1"}, "[29]": {"target": "Fuc(a1-2)Gal(b1-4)GlcNAc(b1-3)[Fuc(a1-3)[Gal(b1-4)]GlcNAc(b1-6)]Gal(b1-4)Glc", "outline": "as §1"}, "[30]": {"target": "Fuc(a1-2)Gal(b1-4)GlcNAc(b1-6)GalNAc", "outline": "as §1"}, "[31]": {"target": "Fuc(a1-2)Gal(b1-4)GlcNAc6S", "outline": "as §1"}}, "note": "The list shows a part of the results."}
{"binder": "B1", "values": [{"measurement": "glycan array binding signal (z-score)", "setting": "Fuc(a1-2)Gal", "result": -0.09}, {"measurement": "glycan array binding signal (z-score)", "setting": "Fuc(a1-2)Gal(b1-3)GalNAc", "result": 0.01}, {"measurement": "glycan array binding signal (z-score)", "setting": "[1]", "result": -0.114}, {"measurement": "glycan array binding signal (z-score)", "setting": "[2]", "result": -0.287}, {"measurement": "glycan array binding signal (z-score)", "setting": "[3]", "result": -0.455}, {"measurement": "glycan array binding signal (z-score)", "setting": "[4]", "result": -0.179}, {"measurement": "glycan array binding signal (z-score)", "setting": "[5]", "result": -0.317}, {"measurement": "glycan array binding signal (z-score)", "setting": "Fuc(a1-2)Gal(b1-3)GlcNAc", "result": -0.382}, {"measurement": "glycan array binding signal (z-score)", "setting": "[6]", "result": 1.22}, {"measurement": "glycan array binding signal (z-score)", "setting": "[7]", "result": 0.041}, {"measurement": "glycan array binding signal (z-score)", "setting": "[8]", "result": -0.309}, {"measurement": "glycan array binding signal (z-score)", "setting": "[9]", "result": -0.105}, {"measurement": "glycan array binding signal (z-score)", "setting": "[10]", "result": -0.549}, {"measurement": "glycan array binding signal (z-score)", "setting": "[11]", "result": -0.317}, {"measurement": "glycan array binding signal (z-score)", "setting": "[12]", "result": -0.222}, {"measurement": "glycan array binding signal (z-score)", "setting": "[13]", "result": -0.294}, {"measurement": "glycan array binding signal (z-score)", "setting": "[14]", "result": -0.341}, {"measurement": "glycan array binding signal (z-score)", "setting": "[15]", "result": -0.244}, {"measurement": "glycan array binding signal (z-score)", "setting": "[16]", "result": 0.052}, {"measurement": "glycan array binding signal (z-score)", "setting": "[17]", "result": -0.356}, {"measurement": "glycan array binding signal (z-score)", "setting": "[18]", "result": -0.013}, {"measurement": "glycan array binding signal (z-score)", "setting": "[19]", "result": 3.58}, {"measurement": "glycan array binding signal (z-score)", "setting": "Fuc(a1-2)Gal(b1-4)Glc", "result": -0.41}, {"measurement": "glycan array binding signal (z-score)", "setting": "Fuc(a1-2)Gal(b1-4)Glc6S", "result": -0.32}, {"measurement": "glycan array binding signal (z-score)", "setting": "Fuc(a1-2)Gal(b1-4)GlcNAc", "result": 0.026}, {"measurement": "glycan array binding signal (z-score)", "setting": "[20]", "result": -0.095}, {"measurement": "glycan array binding signal (z-score)", "setting": "[21]", "result": 1.66}, {"measurement": "glycan array binding signal (z-score)", "setting": "[22]", "result": -0.357}, {"measurement": "glycan array binding signal (z-score)", "setting": "[23]", "result": 0.009}, {"measurement": "glycan array binding signal (z-score)", "setting": "[24]", "result": -0.247}, {"measurement": "glycan array binding signal (z-score)", "setting": "[25]", "result": 0.521}, {"measurement": "glycan array binding signal (z-score)", "setting": "[26]", "result": -0.353}, {"measurement": "glycan array binding signal (z-score)", "setting": "[27]", "result": 0.035}, {"measurement": "glycan array binding signal (z-score)", "setting": "[28]", "result": -0.358}, {"measurement": "glycan array binding signal (z-score)", "setting": "[29]", "result": -0.349}, {"measurement": "glycan array binding signal (z-score)", "setting": "[30]", "result": -0.607}, {"measurement": "glycan array binding signal (z-score)", "setting": "[31]", "result": -0.279}]}
